# Hit rate of the full screen: of about 43,000 compounds, about 200 (0.47%) were called active. About 12% were inconclusive and are not listed. The call rests on the fitted dose curve; in most records, active means well fitted cell-killing curve with a large enough effect; inconclusive means small, poorly fitted or top-dose-only effect, or effect the other way; inactive means flat fitted curve, though single readings scatter. Some of the results follow.
# Assay: Cell viability qHTS assay in S16 Pmp22-F2sN cells; further: nearly all actives have a fitted effect of over 65% in size
# Conditions: S16 Pmp22-F2sN Schwann cells (luciferase reporters placed in the Pmp22 gene) viability, CellTiter-Glo, 24 h; series mostly up to 57.5 µM; activity change, negative = cytotoxicity: at the top concentration
# Procedure, shortened: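 CellTiter-Glo counter-screen, qHTS, 1536-well. Cells: S16(c9) Pmp22-F2sN, 500-1,000/well in DMEM + 10% FBS. Cpd 23 nL pin transfer, 24 h, 37C/5% CO2. Read: luminescence, CCD imager.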
# On the % scale 0 is the no-effect control and ±100 the full control effect; potency means the concentration at half of the fitted maximal effect.
SMILES,"activity change, negative = cytotoxicity",Potency
COc1ccc(NC(=O)C(c2ccc(C)cc2)N(C)C(=O)Cc2cccs2)cc1 (stereo not given),inactive: -8.43%,–
COc1ccc(-c2cccc(NS(=O)(=O)c3cc(C)c(OC)c(C)c3C)c2)nn1,inactive: -16.8%,–
CCOc1ccccc1C(=O)N1CC(=O)Nc2ccc(Cl)cc2C1c1ccccc1 (stereo not given),inactive: -9.27%,–
O=C(Cn1c(=O)c2cc(Cl)ccc2n2nncc12)Nc1ccccc1,inactive: 1.22%,–
CCc1ccc(NC(=O)c2sc3nc(C)c(Cl)c(C)c3c2N)cc1,inactive: -2.72%,–
O=C(Cn1c(-c2cccs2)cc2cc(Cl)ccc21)N1CCN(c2ccccc2)CC1,inactive: 0.0072%,–
Cc1ccc(C)c(NC(=O)CCn2nc(C)c3c(C)n(-c4ccccc4)nc3c2=O)c1,inactive: -4.81%,–
Cc1nc(-c2ccc(Cl)cc2)sc1CCNC(=O)c1ccc(C(F)(F)F)cc1,inactive: -0.0458%,–
COc1ccccc1C(=O)OCc1cc(=O)n2nc(C3CC3)sc2n1,inactive: 14.6%,–
CCC1CCc2nc3sc(C(=O)Nc4ccc(F)c(Cl)c4)c(N)c3cc2C1 (stereo not given),inactive: 3.5%,–
Cc1ccc(C)c(NC(=O)c2ccc3c(c2)CCN3S(C)(=O)=O)c1,inactive: 7.23%,–
Cc1cccc(-c2nn3c(=O)cc(CN4CCN(S(=O)(=O)c5ccc(Cl)cc5)CC4)nc3s2)c1,inactive: -13.8%,–
CCc1cc2c(cc3c(=O)n(CC(=O)NCCc4ccc(OC)c(OC)c4)ncn32)s1,inactive: -4.06%,–
COC(=O)c1cc(S(=O)(=O)NCC2CCN(Cc3cccc(F)c3)CC2)c[nH]1,inactive: -10.8%,–
Cc1ccccc1Cn1c(=O)n(CCc2ccccc2)c(=O)c2c(C)c(C)sc21,inactive: 0.106%,–
COc1cccc(OCCSc2nc3ccccc3n2CC(=O)N2CCCCC2)c1,inactive: 2.25%,–
COc1ccc(-c2nc(CN3CCC(C(=O)NCCCOC(C)C)CC3)c(C)o2)cc1OC,inactive: 15.7%,–
COc1cccc(-n2cc(C(=O)NCc3ccccc3OC)c3ccccc3c2=O)c1,inactive: 14.5%,–
COc1ccc(NC(=O)Cn2c(=O)n(Cc3nc(C)no3)c(=O)c3cc4c(cc32)OCO4)cc1OC,inactive: 2.33%,–
Cc1cccc(C)c1-n1ncc(C(=O)NCCN2CCOCC2)c1C1CCN(C(=O)OC(C)(C)C)CC1,inactive: -2.46%,–
O=C(CCn1ccc2cc(S(=O)(=O)N3CCCC3)ccc21)NCc1cccc(F)c1,inactive: -24.6%,–
COC(=O)CSc1nc(-c2ccc(F)cc2)cc(C(F)(F)F)n1,inactive: -12.5%,–
COc1cc(OC)c(C2Nc3ccccc3-c3nnc(SCc4ccccc4)nc3O2)cc1OC (stereo not given),inactive: 6.62%,–
COc1ccc(OC)c(C2N=C(N)Nc3nc4ccccc4n32)c1 (stereo not given),inactive: 8.03%,–

SMILES,"activity change, negative = cytotoxicity",Potency
O=C(NCc1ccc(Cl)cc1)C1CCCN(C(=O)c2cnn(-c3ccc(F)cc3)c2-n2cccc2)C1 (stereo not given),inactive: -21.1%,–
Cc1ccc(C)c(Nc2cc(C(=O)NC3CCCCC3)c3ccccc3n2)c1,inactive: 13.9%,–
O=C(CCn1c(=O)c2cccn2c2ccc(F)cc21)NCCc1ccccc1,inactive: -3.57%,–
Cc1ccc(N(C(=O)COc2ccccc2C)S(=O)(=O)c2ccc(Cl)cc2)cc1,inactive: -7.71%,–
Cc1cc(C)c2oc(C(=O)Nc3sc4c(c3C(=O)NCc3ccco3)CCCC4)cc(=O)c2c1,inactive: 4.86%,–
CCc1cccc(NC(=O)CCc2c(C)nc3c(c2C)c(=O)n(C)c(=O)n3C)c1,inactive: 8.76%,–
Cc1ccc(CNC(=O)CCSCc2ccccc2F)cc1,inactive: -0.334%,–
O=C(NCc1cccnc1)c1nn(-c2ccccc2F)nc1CO,inactive: 1.19%,–
COc1ccccc1NC(=O)Cn1c(=O)n(-c2ccc(C)cc2)c(=O)c2ccc(C(=O)NCc3ccco3)cc21,inactive: 4.8%,–
CCOCCCNC(=O)c1ccc(NC(=O)N2CCCCc3ccccc32)cc1,inactive: -18.6%,–
Cc1c(NC(=O)c2ccc(Cl)cc2)cc(C(C)C)c(O)c1S(=O)(=O)c1ccc(Cl)cc1,inactive: -9%,–
COc1ccccc1N1CCN(c2ccc(=O)n(CC(=O)Nc3ccc(F)c(F)c3)n2)CC1,inactive: 1.1%,–
Cc1ccc(NC(=O)c2cccc(N3CCCS3(=O)=O)c2)cc1,inactive: 18.9%,–
COc1ccc(NC(=O)C2=C(C)Nc3nc(CCCO)nn3C2c2ccc(O)cc2)cc1 (stereo not given),inactive: 5.75%,–
Cc1ccc(C)c(S(=O)(=O)c2nnn3c2nc(N2CCOCC2)c2sccc23)c1,inactive: 3.23%,–
COCCCNC(=O)C(=O)NCC(c1ccc2c(c1)OCO2)N1CCOCC1 (stereo not given),inactive: -1.69%,–
CCN1C(=O)c2ccccc2S(=O)c2ccc(C(=O)NCc3ccc(F)cc3)cc21 (stereo not given),inactive: 4.41%,–
CCOc1ccc(C(c2c(O)cc(C)n(CCOC)c2=O)N2CCN(c3ccccc3F)CC2)cc1 (stereo not given),inactive: 9.06%,–
CC(C)N(Cc1ccccc1)c1ncnc2c1nnn2C,inactive: -4.31%,–
CCOC(=O)c1cc(-c2ccc(OC)c(S(=O)(=O)Nc3ccc(OC)cc3OC)c2)on1,inactive: -6.54%,–
Cc1ccc(CNC(=O)c2nnc(Cc3cccc(F)c3)o2)cc1,inactive: -5.24%,–
COc1ccccc1-c1nnc(SCCOc2ccccc2C)o1,inactive: 16.6%,–
CC(C)c1ccc(S(=O)(=O)c2cnc(SCC(=O)Nc3cccc(C(F)(F)F)c3)nc2N)cc1,inactive: 20.4%,–
CCc1cccc(CC)c1NS(=O)(=O)c1ccc2c(c1)CCN2C(=O)C1CC1,inactive: 5.66%,–

SMILES,"activity change, negative = cytotoxicity",Potency
COc1ccc(N2CC(C(=O)Nc3ccc(NC(C)=O)cc3)CC2=O)cc1 (stereo not given),inactive: 8.5%,–
COC(=O)c1sccc1S(=O)(=O)N1CCN(c2ccccc2OC)CC1,inactive: -1.31%,–
O=C(c1ccc2c(c1)N(Cc1ccc(F)cc1)C(=O)c1ccccc1S2=O)N1CCOCC1 (stereo not given),inactive: 1.41%,–
CCN(c1ccccc1)S(=O)(=O)c1ccc(NC(=O)c2cc(=O)c3cc(C)ccc3o2)cc1,inactive: -0.517%,–
COc1cc(C(=O)Nc2nc3c(s2)Cc2c(Br)ccc(OC)c2-3)cc(OC)c1OC,–,active: 25.1 µM
CCC(Sc1nc2ccccc2c2nc(CCc3c(C)n[nH]c3C)nn12)C(=O)Nc1ccc(OC)cc1 (stereo not given),inactive: 3.26%,–
O=C(Nc1nnc(N2CCCCCC2)s1)Nc1ccccc1C(F)(F)F,inactive: 0.247%,–
O=C(OCC1CCCO1)c1ccc2c(c1)N(Cc1cccc(Cl)c1)C(=O)c1ccccc1S2(=O)=O (stereo not given),inactive: -1.29%,–
Cc1ccc(NC(=O)NCCOCCn2c(=O)oc3ccccc32)cc1F,inactive: 9.62%,–
COC(=O)c1c(C)sc(-c2c(-c3ccc4c(c3)OCCO4)[nH]c3[nH]c(=O)[nH]c(=O)c23)c1O,inactive: -9.27%,–
CCOc1ccc(-c2cc3nc(C4CCN(C(=O)OC(C)(C)C)CC4)c(C(=O)Nc4ccc(C)cc4Cl)cn3n2)cc1,inactive: 7.5%,–
O=S(=O)(c1ccc(Br)cc1)c1nnn2c1nc(Nc1cccc(C(F)(F)F)c1)c1sccc12,inactive: -5.23%,–
CN1CCSc2ccc(C(=O)NCc3ccccc3F)cc21,inactive: -15.8%,–
Cc1cc(C)c2c(n1)nn1c(C)c(CCC(=O)NCc3ccccc3Cl)c(C)nc21,inactive: 2.75%,–
COc1ccccc1CCNC(=O)Cc1c(C)c2cc3c(C(C)(C)C)coc3c(C)c2oc1=O,inactive: 1.39%,–
COc1ccc(CCNC(=O)c2ccc(-n3c(C)cc4c3CCCC4)cc2)cc1OC,inactive: -25.4%,–
CCCc1cc(=O)[nH]c(SCc2nc(-c3ccc(C)cc3)no2)n1,inactive: 0.493%,–
Cc1cccc(NC(=O)Cn2cnc(S(=O)(=O)N3CCCC3)c2)c1C,inactive: 1.24%,–
CCCSc1ncc(Cl)c(C(=O)Nc2c(C(=O)Nc3ccccc3)oc3ccccc23)n1,inactive: -9.21%,–
COc1ccc(N2CCN(S(=O)(=O)CCNC(=O)COc3cccc(OC)c3)CC2)cc1,inactive: 2.46%,–
CCN(C(=O)CCNC(=O)Cn1cnc2ccccc2c1=O)c1cccc(Cl)c1,inactive: 21.9%,–
COc1cccc(NC(=O)C(=O)NCCc2csc(-c3ccc(C)cc3)n2)c1,inactive: 2.28%,–
CCCn1cc(S(=O)(=O)c2ccc(C)cc2)c(=O)c2cc(OC)c(OC)cc21,inactive: -17.6%,–
COc1ccc(C2=C(C)C(N3CCC(C(=O)Nc4cc(C)ccc4C)CC3)=NS2(=O)=O)cc1,inactive: 3.89%,–

SMILES,"activity change, negative = cytotoxicity",Potency
CSc1ncc(C(=O)NCc2ccc(Cl)cc2)c(C(F)(F)F)n1,inactive: -0.961%,–
CCn1c(CN2CCCCC2)nc2cc(NC(=O)c3ccccc3[N+](=O)[O-])ccc21,inactive: -7.34%,–
CCOC(=O)CSc1nc(-c2ccccc2)cc(C(F)(F)F)c1C#N,inactive: 20.7%,–
Cc1nn(-c2ccccc2)c(OC(=O)c2ccc(F)cc2)c1S(=O)(=O)c1ccccc1,inactive: 13.2%,–
COc1cccc(N2CCN(C(=O)c3cc4c(=O)n(Cc5cccs5)ccc4nc3C)CC2)c1,inactive: 5.73%,–
Cc1ccc(CNC(=O)Cn2ncc3c([nH]c4ccc(C)cc43)c2=O)cc1,inactive: 7.93%,–
COC(=O)c1ccc(Cl)cc1NC(=O)NCc1c(-n2cccc2)sc2c1CCCC2,inactive: -4.7%,–
O=C(Nc1cccc2cccnc12)c1cccc2ccccc12,inactive: 1.69%,–
CCOC(=O)c1ccc(NC(=O)c2csc3c2CCCC3)cc1,inactive: 22.6%,–
CCOc1ccc(C(=O)Nc2ccc(C(=O)OCc3cc(=O)n4ccsc4n3)cc2)cc1,inactive: 22.6%,–
CCCCC(=O)Nc1cc2nn(-c3ccc(OCC)cc3)nc2cc1C,inactive: 4.25%,–
Cc1cccc(C)c1Nc1c(-c2cccs2)nc2ncccn12,inactive: 11.1%,–
Cn1c(=O)c2c(SCC(=O)NCC3CCCO3)nc(-c3cccc(F)c3)nc2n(C)c1=O (stereo not given),inactive: 1.42%,–
Cc1cccc(OCCSc2nc3ccc(NC(=O)c4cccs4)cc3s2)c1,inactive: 7.67%,–
Cc1ccc(OCC(=O)Nc2cc(-c3nc4ccccc4[nH]3)ccc2C)c(C)c1,inactive: 9.77%,–
Cc1cccc(Cn2cc(S(=O)(=O)c3ccc(Cl)cc3)c(=O)c3cc4c(cc32)OCO4)c1,inactive: -4.81%,–
CC(=O)c1ccc(NC(=O)c2ccc(NC(=O)CCS(=O)(=O)c3cccs3)cc2)cc1,inactive: 15.2%,–
O=C(Nc1ccc2nc(SCC(=O)N3CCCC3)sc2c1)c1ccc(Br)cc1,inactive: 1.9%,–
Cc1cccc(OCC(=O)OCc2cc(=O)n3nc(-c4cccs4)sc3n2)c1,inactive: -14.5%,–
O=C(C1CC1)N1CCc2cc(Br)cc(S(=O)(=O)N3CCN(c4cccc(Cl)c4)CC3)c21,inactive: -3.88%,–
Cc1ccc2nc(COc3cccc(NC(=O)COc4ccccc4F)c3)cc(=O)n2c1,inactive: 11.2%,–
CCOC(=O)c1cc(-c2ccccc2)n(-c2cccc(C(=O)Nc3cccc(C)c3)c2)c1C,inactive: -4.56%,–
COC(=O)c1ccccc1NC(=O)Cn1c(=O)nc(-c2ccccc2)c2cc(Cl)ccc21,inactive: 5.26%,–
